Test results from patent US20260035452A1 (THE UNIVERSITY OF BIRMINGHAM, priority 2022, published 2026).

Experiments:
[1] = In vivo immunogenicity assay (total IgG, IgG1); parameters: species or system CD-1 mice; conditions: 100 μg i.p., 2 h to 21 days, compared to reference and gold standard antibodies
Description: (§1) To assess the neutralising activity of Ab-IPL-IL-17™, CD-1 mice were injected i.p. with 100 μg/mouse of Ab-IPL-IL-17™, MAB421 or secukinumab as positive controls. After 30 min, an i.p. injection of 10 μg/mouse of IL-17A, IL-17F or IL-17A/F heterodimer was administered. After 2 h blood was collected by intracardiac puncture and serum levels of (A) IL-17A, (B) IL-17F or (C) IL-17A/F heterodimer were quantified by Elisa. (C-F) For the evaluation of immunogenic effects CD-1 mice were injected i.p. with 100 μg of IgG1 isotype antibody (vehicle) or IL-17 neutralising antibodies (bimekizumab, secukinumab, MAB421 or Ab-IPL-IL-17™). In the selected time-point (2 h, 24 h, 72 h, 7 days, 14 days and 21 days) total IgG, IgG1, lymphocytes and platelets levels were determined by Elisa and haematological blood count test, respectively. Data are presented as mean±S.D. for n=5 mice per group. […]
(§2) For the neutralisation assay, CD-1 mice (n=5 per group) were injected i.p. with 100 μg of IL-17 neutralising antibodies (bimekizumab, secukinumab, MAB317 or Ab-IPL-IL-17™) 30 min prior to an i.p. injection of 10 μg IL-17A or IL-17F (2057-IL, R&D System). 2 h after IL-17s administration, IL-17A and IL-17F levels were determined by Elisa. […] In a selected time-point of 2 h, 24 h, 72 h, 7 days, 14 days and 21 days total IgG and IgG1 levels were determined by Elisa. […]

Monoarthritic mice (AIA) = assay: AIA model (monoarthritis); assay type: in vivo, C57Bl/6J mice; conditions: 50 μg i.p. at 24 h or 72 h post disease onset, vs infliximab
Description: Monoarthritic mice (AIA group) were therapeutically administered Ab-IPL-IL-17™ or infliximab (anti-TNF-α) on day 1 and 3. Joint inflammation was scored daily and expressed as (A) percentage of baseline joint thickness or (B) AUC. (A-B) Data are presented as mean±S.D. for n=6 mice per group. Statistical analysis was conducted by one or two-way ANOVA followed by Dunnett post-test. *P≤0.05, **p≤0.01 vs AIA group. (C) Human whole blood from IBD patients was treated with or without Ab-IPL-IL-17™ (10 μg/ml) for 4 h, after which serum IL-17 levels were assessed by Elisa assay. Data are median±interquartile ranges (min 25%, max 75%) for n=6 independent donors. Statistical analysis was conducted by one-way ANOVA followed by Bonferroni's for multiple comparisons. ^#P≤0.05 vs vehicle group.
Animal studies were regulated by the Animals (Scientific Procedures) Act 1986 of the United Kingdom and performed under appropriate Personal Project License. Approval was granted by the University of Birmingham's Animal Welfare and Ethical Review Body and all ethical guidelines were adhered to whilst carrying out this study. […] Joint thickness (mm) was measured by callipers daily for up to 7 days. Data are expressed as a percentage change from baseline measurement taken on day 21 or area under the curve (AUC).

[2] = test system: Human fibroblasts from RA patients; assay: IL-6 release by human fibroblasts from RA patients (Elisa); assay type: cell-based; conditions: IL-17 (10 ng/ml) + TNF-α (100 U/ml), antibody 10 μg/ml 30 minutes before, 24 h
Description: (§3) Data were expressed as pg/ml and presented as means±S.D. of three separate independent experiments. Statistical analysis was conducted using analysis of variance with Bonferroni post-test for multiple comparisons. ^###P≤50.001 vs own Ctrl group; **P≤0.01 vs RA IL-17 group; ^+P≤0.05 vs Res IL-17 group.
(§4) Isolation of human fibroblasts: Synovial tissue samples were obtained by ultrasound-guided biopsy from treatment-naive patients with a new onset of clinically apparent arthritis and a symptom duration of ≤12 weeks, who at follow-up had either a resolving arthritis (Res). […] Supernatants were collected and measured to evaluate IL-6 levels.
(§5) Elisa assay: The levels of IL-6 were measured using commercially available enzyme-linked immunosorbent assay kits (ELISA kit, R&D System, Milan, Italy) according to the manufacturer instructions. […] The addition of 100 μl of the substrate and stop solution represented the last steps before the reading of absorbance (measured at 450 nm) on a microplate reader. Antigen levels in the samples were determined using a standard curve expressed as pg/ml.

IL-17F = molecular target: T1, IL-17F (Mus musculus, UniProt Q7TNI7); assay: In vivo neutralisation assay, IL-17F; conditions: CD-1 mice, 100 μg antibody i.p. 30 min before 10 μg IL-17F i.p., 2 h
T1 construct: purchased R&D System 2057-IL
T1 sequence (Q7TNI7 29-161): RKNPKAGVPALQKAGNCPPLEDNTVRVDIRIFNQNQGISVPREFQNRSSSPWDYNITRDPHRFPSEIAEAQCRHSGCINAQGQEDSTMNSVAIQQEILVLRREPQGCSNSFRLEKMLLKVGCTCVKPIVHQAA
Description: as §1, §2

IL-17A/F heterodimer = molecular target: T2, IL-17A/F heterodimer (Mus musculus, UniProt Q62386+Q7TNI7); assay: In vivo neutralisation assay, IL-17A/F heterodimer; conditions: CD-1 mice, 100 μg antibody i.p. 30 min before 10 μg IL-17A/F i.p., 2 h
T2 sequence (Q62386 26-158): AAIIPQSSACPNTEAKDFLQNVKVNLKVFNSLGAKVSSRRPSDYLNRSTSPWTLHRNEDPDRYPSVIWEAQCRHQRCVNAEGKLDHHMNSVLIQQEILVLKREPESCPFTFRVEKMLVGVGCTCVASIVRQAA
T2 sequence (Q7TNI7 29-161): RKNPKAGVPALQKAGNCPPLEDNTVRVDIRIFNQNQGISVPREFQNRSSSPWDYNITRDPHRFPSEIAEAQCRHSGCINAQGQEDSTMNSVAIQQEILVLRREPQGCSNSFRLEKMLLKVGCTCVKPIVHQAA
Description: as §1, §2

IL-17A = molecular target: T3, IL-17A (Mus musculus, UniProt Q62386); assay: In vivo neutralisation assay, IL-17A; conditions: CD-1 mice, 100 μg antibody i.p. 30 min before 10 μg IL-17A i.p., 2 h
T3 construct: purchased R&D System
T3 sequence (Q62386 26-158): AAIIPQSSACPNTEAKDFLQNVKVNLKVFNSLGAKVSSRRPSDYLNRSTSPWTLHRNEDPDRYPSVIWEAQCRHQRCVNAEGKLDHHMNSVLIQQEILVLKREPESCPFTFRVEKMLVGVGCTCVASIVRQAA
Description: as §1, §2

[3] = test system: Human fibroblasts from Resolving patients; assay: IL-6 release by human fibroblasts from Resolving arthritis patients (Elisa); assay type: cell-based; conditions: Res conditions, IL-17 + TNF-α, antibody 10 μg/ml
Description: as §3, §4, §5

B1: Ab17-IPL-1: monoclonal anti-interleukin-17A neutralizing antibody, heavy chain SEQ ID NO: 3, light chain SEQ ID NO: 5 (antibody)
heavy: EVILVESGGGLVKPGGSLKLSCAASGFTFSSYAMSWVRQTPEKRLEWVATITGGGTYIYYPDSVKGRFTISRDNAKNTLYLQMSSLRSEDTAMYFCARIYGRNYYFDYWGQGTTLTVSSAKTTPPSVYPLAPGSAAQTNSMVTLGCLVKGYFPEPVTVTWNSGSLSSGVHTFPAVLQSDLYTLSSSVTVPSSTWPSETVTCNVAHPASSTKVDKKIVPRDCGCKPCICTVPEVSSVFIFPPKPKDVLTITLTPKVTCVVVDISKDDPEVQFSWFVDDVEVHTAQTQPREEQFNSTFRSVSELPIMHQDWLNGKEFKCRVNSAAFPAPIEKTISKTKGRPKAPQVYTIPPPKEQMAKDKVSLTCMITDFFPEDITVEWQWNGQPAENYKNTQPIMDTDGSYFVYSKLNVQKSNWEAGNTFTCSVLHEGLHNHHTEKSLSHSPGK
light: QIVLTQSPAIMSASLGEEITLTCSANSSVTYMHWYQQKSGTSPKLLIYSTSNLASGVPSRFSGSGSGTFYSLTISSVEAEDAADYYCHQWSSYRTFGGGTKLEIQRADAAPTVSIFPPSSEQLTSGGASVVCFLNNFYPKDINVKWKIDGSERQNGVLNSWTDQDSKDSTYSMSSTLTLTKDEYERHNSYTCEATHKTSTSPIVKSFNRNEC
With B1 the immunogenicity [1] was “minor immunogenicity”, the “onset and progression of mouse pathology (joint thickness)” value (Monoarthritic mice (AIA)) was “able to ameliorate onset and progression of mouse pathology in a more extensive manner compared to gold standard antibody” and the “IL-6 production in the presence of antibody” value [2] was 2383.61 µg/mL. The “neutralisation of IL-17F (serum level)” value (IL-17F) was “able to neutralize”, the “neutralisation of IL-17A/F heterodimer (serum level)” value (IL-17A/F heterodimer) was “able to neutralize” and the “neutralisation of IL-17A (serum level)” value (IL-17A) was “able to neutralize”. For the same molecule, the “effect of antibody on IL-6 production” value [3] was “No significant effects”.
